Assay results as given in patent US20240076343A1 (CEPHALON, published 2024).

Experiments:
[1] = target: T1, high-affinity hIL-2 receptor (IL-2Rαβγ) on NK-92 cells (human, UniProt P01589 22-272; P14784 27-551; P31785 23-369); test: cell-based or functional assay
T1 sequence 1: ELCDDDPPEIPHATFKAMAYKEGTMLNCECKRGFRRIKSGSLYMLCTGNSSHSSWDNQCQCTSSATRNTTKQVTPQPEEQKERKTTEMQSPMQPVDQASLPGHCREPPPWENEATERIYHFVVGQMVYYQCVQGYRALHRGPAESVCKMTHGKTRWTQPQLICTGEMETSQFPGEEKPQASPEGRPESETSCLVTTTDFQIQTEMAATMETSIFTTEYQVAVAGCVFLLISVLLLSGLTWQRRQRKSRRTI
T1 sequence 2: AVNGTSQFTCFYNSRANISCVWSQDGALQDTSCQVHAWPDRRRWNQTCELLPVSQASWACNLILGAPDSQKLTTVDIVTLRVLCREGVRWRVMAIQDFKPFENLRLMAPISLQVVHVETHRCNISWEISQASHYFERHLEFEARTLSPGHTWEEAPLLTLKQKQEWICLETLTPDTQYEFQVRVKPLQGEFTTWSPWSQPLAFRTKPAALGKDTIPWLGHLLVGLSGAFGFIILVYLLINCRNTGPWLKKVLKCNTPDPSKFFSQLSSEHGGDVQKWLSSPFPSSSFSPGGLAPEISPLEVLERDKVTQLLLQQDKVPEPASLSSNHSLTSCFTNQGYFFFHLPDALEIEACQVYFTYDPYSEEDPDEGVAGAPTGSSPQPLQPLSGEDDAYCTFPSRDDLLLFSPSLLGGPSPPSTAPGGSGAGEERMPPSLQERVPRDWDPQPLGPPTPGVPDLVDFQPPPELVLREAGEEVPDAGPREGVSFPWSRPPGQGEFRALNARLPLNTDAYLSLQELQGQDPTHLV
T1 sequence 3: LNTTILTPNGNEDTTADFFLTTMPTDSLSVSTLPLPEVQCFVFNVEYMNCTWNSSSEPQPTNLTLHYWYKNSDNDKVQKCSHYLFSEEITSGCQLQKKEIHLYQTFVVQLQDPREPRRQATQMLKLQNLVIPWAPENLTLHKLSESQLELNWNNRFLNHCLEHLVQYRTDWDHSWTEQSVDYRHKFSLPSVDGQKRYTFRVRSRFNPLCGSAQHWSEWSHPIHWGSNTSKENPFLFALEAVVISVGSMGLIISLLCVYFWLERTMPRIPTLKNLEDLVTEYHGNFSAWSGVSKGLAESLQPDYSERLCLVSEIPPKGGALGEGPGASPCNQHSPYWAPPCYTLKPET

[2] = target: T2, intermediate-affinity hIL-2 receptor complex (IL-2Rβγ) on TF1+IL-2Rβ cells (human, UniProt P14784 27-551; P31785 23-369); test: cell-based or functional assay
T2 sequence 1: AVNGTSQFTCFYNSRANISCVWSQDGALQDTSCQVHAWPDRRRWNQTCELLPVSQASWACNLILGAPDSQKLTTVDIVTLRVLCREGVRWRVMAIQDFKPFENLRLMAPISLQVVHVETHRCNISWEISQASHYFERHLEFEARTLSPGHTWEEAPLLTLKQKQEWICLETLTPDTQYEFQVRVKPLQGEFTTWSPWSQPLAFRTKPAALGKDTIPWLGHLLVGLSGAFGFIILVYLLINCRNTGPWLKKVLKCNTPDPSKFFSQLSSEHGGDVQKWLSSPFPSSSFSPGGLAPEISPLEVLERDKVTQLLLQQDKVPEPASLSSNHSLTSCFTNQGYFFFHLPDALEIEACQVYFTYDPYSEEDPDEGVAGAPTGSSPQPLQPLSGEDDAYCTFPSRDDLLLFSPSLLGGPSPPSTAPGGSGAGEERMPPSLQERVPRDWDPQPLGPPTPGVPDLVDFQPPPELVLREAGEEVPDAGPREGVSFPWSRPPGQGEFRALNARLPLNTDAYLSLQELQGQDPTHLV
T2 sequence 2: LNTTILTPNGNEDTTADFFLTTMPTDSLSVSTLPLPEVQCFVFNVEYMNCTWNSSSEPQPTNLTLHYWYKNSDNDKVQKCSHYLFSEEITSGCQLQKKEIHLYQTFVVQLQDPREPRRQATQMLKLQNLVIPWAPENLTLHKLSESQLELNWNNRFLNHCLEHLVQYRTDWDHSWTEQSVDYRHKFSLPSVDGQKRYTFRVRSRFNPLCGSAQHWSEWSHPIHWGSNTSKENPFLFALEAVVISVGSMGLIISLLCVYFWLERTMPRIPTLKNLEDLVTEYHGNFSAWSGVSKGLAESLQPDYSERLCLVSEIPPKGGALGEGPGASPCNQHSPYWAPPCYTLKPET

Binder	Fold change from rhIL-2 (NK-92) [1]	Fold change from rhIL-2 (TF1 + IL-2Rβ) [2]
hCD25-L20-hIL-2 Nterm light chain df (other) heavy: EVQLVESGGGLVQPGRSLKLSCAVSGFTFSDYAMAWVRQAPKKGLEWVATISYDGSRTYYRDSVKGRFTISRDNAKITLYLQMDSLRSEDTATYYCARHGSGYFDYWGQGVMVTVSS[not shown - human IgG1 constant region] light: ELCDDDPPEIPHATFKAMAYKEGTMLNCECKRGFRRIKSGSLYMLCTGNSSHSSWDNQCQCTSSATRNTTKQVTPQPEEQKERKTTEMQSPMQPVDQASLPGHCREPPPWENEATERIYHFVVGQMVYYQCVQGYRALHRGPAESVCKMTHGKTRWTQPQLICTSGGGGSGGGGSGGGGSGGGS[not shown - about 150 residues]DTVLTQSPALAVSPGERVTISCRASESVRTGVHWYQQKPGQQPKLLIYGASNLESGVPARFSGSGSGTDFTLTIDPVEADDTATYFCQQSWNDPFTFGSGTKLEIKRTVAAPSVFIFPPSDEQLKSGTASVVCLLNNFYPREAKVQWKVDNALQSGNSQESVTEQDSKDSTYSLSSTLTLSKADYEKHKVYACEVTHQGLSSPVTKSFNRGEC	15100 fold	~542 fold
hCD25-L20-hIL-2 Nterm light chain L6 fusion (other) heavy: EVQLVESGGGLVQPGRSLKLSCAVSGFTFSDYAMAWVRQAPKKGLEWVATISYDGSRTYYRDSVKGRFTISRDNAKITLYLQMDSLRSEDTATYYCARHGSGYFDYWGQGVMVTVSS[not shown - human IgG1 constant region] light: ELCDDDPPEIPHATFKAMAYKEGTMLNCECKRGFRRIKSGSLYMLCTGNSSHSSWDNQCQCTSSATRNTTKQVTPQPEEQKERKTTEMQSPMQPVDQASLPGHCREPPPWENEATERIYHFVVGQMVYYQCVQGYRALHRGPAESVCKMTHGKTRWTQPQLICTSGGGGSGGGGSGGGGSGGGS[not shown - about 150 residues]SGGGGSDTVLTQSPALAVSPGERVTISCRASESVRTGVHWYQQKPGQQPKLLIYGASNLESGVPARFSGSGSGTDFTLTIDPVEADDTATYFCQQSWNDPFTFGSGTKLEIKRTVAAPSVFIFPPSDEQLKSGTASVVCLLNNFYPREAKVQWKVDNALQSGNSQESVTEQDSKDSTYSLSSTLTLSKADYEKHKVYACEVTHQGLSSPVTKSFNRGEC	631 fold	46 fold
hCD25-L20-hIL-2 Cterm light chain df (other) heavy: EVQLVESGGGLVQPGRSLKLSCAVSGFTFSDYAMAWVRQAPKKGLEWVATISYDGSRTYYRDSVKGRFTISRDNAKITLYLQMDSLRSEDTATYYCARHGSGYFDYWGQGVMVTVSS[not shown - human IgG1 constant region] light: DTVLTQSPALAVSPGERVTISCRASESVRTGVHWYQQKPGQQPKLLIYGASNLESGVPARFSGSGSGTDFTLTIDPVEADDTATYFCQQSWNDPFTFGSGTKLEIKRTVAAPSVFIFPPSDEQLKSGTASVVCLLNNFYPREAKVQWKVDNALQSGNSQESVTEQDSKDSTYSLSSTLTLSKADYEKHKVYACEVTHQGLSSPVTKSFNRGECELCDDDPPEIPHATFKAMAYKEGTMLNCECKRGFRRIKSGSLYMLCTGNSSHSSWDNQCQCTSSATRNTTKQVTPQPEEQKERKTTEMQSPMQPVDQASLPGHCREPPPWENEATERIYHFVVGQMVYYQCVQGYRALHRGPAESVCKMTHGKTRWTQPQLICTSGGGGSGGGGSGGGGSGGGS[not shown - about 150 residues]	45 fold	~174 fold
hCD25-L20-hIL-2 Cterm light chain L6 fusion (other) heavy: EVQLVESGGGLVQPGRSLKLSCAVSGFTFSDYAMAWVRQAPKKGLEWVATISYDGSRTYYRDSVKGRFTISRDNAKITLYLQMDSLRSEDTATYYCARHGSGYFDYWGQGVMVTVSS[not shown - human IgG1 constant region] light: DTVLTQSPALAVSPGERVTISCRASESVRTGVHWYQQKPGQQPKLLIYGASNLESGVPARFSGSGSGTDFTLTIDPVEADDTATYFCQQSWNDPFTFGSGTKLEIKRTVAAPSVFIFPPSDEQLKSGTASVVCLLNNFYPREAKVQWKVDNALQSGNSQESVTEQDSKDSTYSLSSTLTLSKADYEKHKVYACEVTHQGLSSPVTKSFNRGECSGGGGSELCDDDPPEIPHATFKAMAYKEGTMLNCECKRGFRRIKSGSLYMLCTGNSSHSSWDNQCQCTSSATRNTTKQVTPQPEEQKERKTTEMQSPMQPVDQASLPGHCREPPPWENEATERIYHFVVGQMVYYQCVQGYRALHRGPAESVCKMTHGKTRWTQPQLICTSGGGGSGGGGSGGGGSGGGS[not shown - about 150 residues]	138 fold	~247 fold
